Measurements as given in ChEMBL document CHEMBL4888484, “Replenishing the malaria drug discovery pipeline: Screening and hit evaluation of the MMV Hit Generation Library 1 (HGL1) against asexual blood stage Plasmodium falciparum ,using a nano luciferase reporter read-out” (2022).
About 540 (0.36%) of roughly 150,000 compounds showed an effect of 50% or more. Some of the results follow.

Test system: Plasmodium falciparum
Experiment: Primary screen in NF54 nanoGlo assay, in single point, at 2uM, 72h; a lower Z score goes with more inhibition
Format: functional, Erythrocyte
Details: timepoint 72 hour

| Structure (SMILES) | % Inhibition [%] | Z score |
| --- | --- | --- |
| CCS(=O)(=O)N1C[C@@H]2CN(Cc3cnn(C(C)C)c3)C[C@]2(c2nc(C)no2)C1 | -5 | 0.81 |
| Cc1nc2ccccc2nc1N1CCN(C2CC2)CC1 | -11 | 1.44 |
| O=C(Nc1nc(-c2ccccn2)cs1)[C@@H]1COc2ccccc2O1 | -5 | 0.44 |
| CCN(C(=O)c1ccc(-c2cc(C)c(C)cc2C)cc1)[C@H]1COC[C@@H]1O | -5 | 1.04 |
| O=C(NCc1cccnc1-c1ccco1)c1ccccc1C(=O)c1ccc(F)cc1 | -9 | 1.79 |
| CN1CCN(c2ccc(S(=O)(=O)N3CCCCC3)cc2N)CC1 | 31 | -3.51 |
| CCn1nc(Cc2ccc(OC)c(OC)c2)nc1-c1ccn2nnnc2c1 | 7 | -1.16 |
| C[C@H](NC(=O)CCc1ccncc1)c1ccccc1N(C)C | -11 | 1.73 |
| Cc1c[nH]c(CN(C)[C@H]2CN(C(=O)c3ccc(Cl)c(F)c3)C[C@@H]2O)n1 | -21 | 1.82 |
| Cn1c(N2CCC[C@H](C(=O)NCc3cccs3)C2)cc(=O)n(C)c1=O | -3 | 0.52 |
| CCC[C@H]1NC(=O)[C@@H](c2ccc(O)cc2)NC1=O | -15 | 1.53 |
| CC[C@H](C)N1C(=O)C(=O)N(C2CCCCC2)C1=O | -8 | 1.08 |
| Cc1noc(C)c1CN1C[C@H]2CC[C@@H](C1)N(C(=O)c1cc(C(C)C)oc1C)C2 | 2 | -0.35 |
| COc1cc([C@H]2C(=O)N(C3CCCC3)CC(=O)N2C2CCCCCCC2)ccc1OC(C)C | -8 | 1.25 |
| CCN(CC)[C@@H](CN=C(NC)NC)c1ccsc1 | -3 | 0.3 |
| CCc1ncc(CN2CCC[C@H](NS(=O)(=O)c3ccccc3)CC2)cn1 | -7 | 1.12 |
| CCCn1ncnc1-c1cccc(C(=O)NCc2nnn[nH]2)c1 | 0 | 0 |
| O=C1c2ccccc2C(=O)N1CCN1CCN(S(=O)(=O)c2ccccc2)CC1 | -10 | 1.62 |
| O=C(CN1CCOCC1)N1CCC[C@@H]1COc1ccccc1 | -13 | 1.18 |
| CCCn1c(C(=O)NCCc2ccccn2)cc2cc(NC(=O)c3ccc(C)cc3)ccc21 | -11 | 1.35 |
| C=CCn1cc(CN(C)CCCN2CCCCCC2)c(C)n1 | -13 | 1.94 |

| Structure (SMILES) | % Inhibition [%] | Z score |
| --- | --- | --- |
| Cc1ccccc1-c1nc(OC(C)C)nn1-c1ccc(NC(=O)c2ccc3c(c2)OCO3)cc1 | 3 | -0.34 |
| COc1ccccc1CC(=O)NC[C@H]1CCS(=O)(=O)C1 | 4 | -0.73 |
| Cc1ccc(C(=O)Cn2nc3cnccn3c2=O)c(C)c1 | 12 | -1.33 |
| CN(C)C[C@@H]1COCCN(Cc2cc(C(C)(C)C)[nH]n2)C1 | -16 | 1.72 |
| CN1C(=O)C[C@H](NS(=O)(=O)CCc2ccc3c(c2)CCO3)C1=O | -1 | 0.11 |
| COC(=O)c1cc(F)ccc1COc1nc(C)no1 | -2 | 0.32 |
| Cc1nn(C(C)C)cc1C(=O)N(C)Cc1ccc[nH]1 | 4 | -0.76 |
| O=C1NC[C@H](O)Cn2nc(C(=O)N3CCC(CCCc4ccccc4)CC3)cc21 | -8 | 1.09 |
| CCc1nc(N2CCN(S(=O)(=O)c3ccc(Cl)cc3)CC2)c2cnn(-c3ccccc3)c2n1 | 5 | -1.03 |
| C[C@]1(CCCO)CCCN1C(=O)Nc1cccnc1 | -7 | 0.86 |
| CC(=O)c1cc(-c2ncnn2C2Cc3ccccc3C2)c(=O)[nH]c1C | -11 | 1.53 |
| c1ccc2oc(-c3noc(C45CCCN4CCC5)n3)cc2c1 | -5 | 0.56 |
| CCCCS(=O)(=O)NC1=NCN(CCO)CN1 | -3 | 0.36 |
| Cn1c(C2CC2)nc2cc(CNC(=O)CC3CC3)ccc21 | -7 | 1.3 |
| O=C1C[C@@H](c2ccccc2)N(Cc2ccncc2)CCCNCCN1 | -9 | 1.07 |
| O=C(Nc1cccnc1)c1c[nH]c(-c2ccccc2)n1 | -9 | 1.69 |
| O=C1C[C@H](C(=O)N2CCCn3nnnc32)CN1c1c(F)cccc1F | -1 | 0.23 |
| N#Cc1cccc(S(=O)(=O)N2C(C(N)=O)CC3CCCCC32)c1 (stereo not drawn) | 8 | -1.2 |
| COC(=O)[C@@H]1CCCCN1CC(=O)N(C(C)C)C(C)C | -1 | 0.12 |
| O=C(NS(=O)(=O)C[C@H]1CCOC1)c1n[nH]c2c1CCCC2 | -15 | 1.54 |
| COc1ccc(CCNC(=O)Cn2c(-c3ccccc3)nc(C)cc2=O)cc1OC | 3 | -0.43 |

| Structure (SMILES) | % Inhibition [%] | Z score |
| --- | --- | --- |
| Cc1n[nH]cc1CN(C)CC1=CC[C@H]2C[C@@H]1C2(C)C | -5 | 0.79 |
| Cc1cc2[nH]c3c(c2cc1C)C[C@@H](NC(=O)Cc1ccccc1C)CC3 | -10 | 1.08 |
| Cc1ncsc1CNC(=O)N[C@@H](C(C)C)C1(CO)CCC1 | -8 | 0.95 |
| O=C(c1cn(CC2(O)CCN(Cc3ccccc3)CC2)nn1)N1CCc2ccccc21 | 33 | -3.71 |
| N#Cc1cccc(C(=O)N2CCOc3ccc(N4CCCC4)cc3C2)c1 | 2 | -0.48 |
| CC1CCC(N(Cc2ccc(C(=O)N(C)C)[nH]2)C[C@H]2CCCO2)CC1 (stereo partly drawn) | -14 | 1.46 |
| CCCCCNC(=O)N[C@@](C)(CC)c1nccs1 | -9 | 1.54 |
| Cc1ccc(-c2nc(N3CCN(CCO)CC3)ncc2-c2cccc(F)c2)cc1 | -11 | 2.09 |
| CC1CN(c2ccc3nnc(C(F)(F)F)n3n2)CC(C)O1 (stereo not drawn) | 3 | -0.29 |
| CC(C)c1noc(CN2C[C@H]3COCC[C@@]3(O)[C@@H]3COCC[C@@H]32)n1 | -20 | 2.03 |
| NC(=O)c1cc([C@@H]2CCCCN2C(=O)Cn2cnc3ccccc32)n[nH]1 | 9 | -1.12 |
| O=C(Nc1cccnc1)N[C@H](c1ccccc1)C1(CO)CCOCC1 | 2 | -0.33 |
| CCOc1ccc(CNC(=O)[C@H](C)n2nc(C)c3nn(-c4ccccc4)c(C)c3c2=O)cc1OC | 6 | -0.83 |
| COc1ccc(C(=O)N2CC[C@H]3[C@H](C2)OCc2cnnn23)cn1 | 0 | 0.03 |
| COc1ccc(-c2ccc(=O)n(CN3CCCCC3)n2)cc1OC | -16 | 2.01 |
| CC(C)N1C[C@H]2CN(S(=O)(=O)Cc3ccc(F)cc3)C[C@@]2(C(=O)N2CCCC2)C1 | 6 | -1.04 |
| O=C(Nc1ccccc1)N1CC(O)CC1C1CCCCC1 (stereo not drawn) | -5 | 0.75 |
| C[C@@H](CO)N(C)c1cc(Oc2ccccc2Br)ncn1 | 2 | -0.25 |
| C[C@H](NS(=O)(=O)CC1CCOCC1)c1csc(C2CC2)n1 | -4 | 0.82 |
| Cc1nc(NCC2(C)CCOCC2)n(C)n1 | -9 | 1.09 |
| CCOC1CC(C(=O)NCc2coc3ccccc23)C1 (stereo not drawn) | -9 | 1.65 |

| Structure (SMILES) | % Inhibition [%] | Z score |
| --- | --- | --- |
| CC(=O)N1CCOC[C@H]1c1nc(-c2ccc(OC(F)(F)F)cc2)c[nH]1 | 32 | -3.66 |
| Cc1ccc(C(=O)N2[C@H](C(=O)NCc3ccccc3)COC23CCN(C(=O)c2ccc(F)cc2)CC3)cc1 | -16 | 1.86 |
| c1cc(C[C@@H]2CC[C@H](CN3CCCOCC3)O2)ccn1 | -8 | 1.6 |
| O=C(O)Cc1csc(-c2ccc(Cl)s2)n1 | -9 | 1.22 |
| Cc1ccc(S(=O)(=O)N2CCc3ncncc3C2)s1 | 0 | -0.06 |
| Cc1nc(N(C)Cc2ccon2)cc([C@H]2C[C@@H](O)C2)n1 | -8 | 1.45 |
| O=C(C[C@@H]1NC(=O)N(CCc2ccccc2)C1=O)N1CCc2ccccc2C1 | -9 | 1.37 |
| Cc1nnc(CNC(=O)N(C)CC(F)(F)F)o1 | -8 | 1.45 |
| O=C(NS(=O)(=O)c1ccc2c(c1)OCCCO2)C1CCC1 | -34 | 3.94 |
| Cc1cnn(CC(=O)N2CCN([C@H](C#N)C3CCCCC3)CC2)c1 | -6 | 1.07 |
| O=S(=O)(c1ccc2c(c1)CCCC2)N1CC(N2CCCC2)C1 | -8 | 1.19 |
| C=CCN(C(=O)c1ccc(=O)[nH]n1)[C@@H](C)C(C)C | 15 | -1.64 |
| COc1ccc(-c2ccnc(N3CCN(c4cccc(C(F)(F)F)c4)CC3)n2)c(OC)c1 | -34 | 4.04 |
| Nc1c2c(-c3ccc(F)cc3)nc(NCc3ccccn3)nc2nn1-c1ccccc1Cl | 4 | -0.51 |
| CC=Cc1ccc(OCC(=O)Nc2cccc(NC(=O)Nc3ccccc3)c2)c(OC)c1 | -7 | 0.59 |
| CC(C)c1nc(CN(CC(F)(F)F)C2CCC2)no1 | -15 | 2.89 |
| Cc1c(CNCCCN(Cc2ccccc2)C(C)C)c(C(=O)O)c(C)n1-c1ccc(Cl)cc1 | -9 | 1.18 |
| O=C(c1csc(-c2ccc(F)cc2)n1)N1CCC1 | -9 | 1.24 |
| Cc1nn(CCCNC(=O)c2nccnc2C(=O)N2CCCCC2)c(C)c1C | 8 | -1.06 |
| COc1cc(OC)cc(C2(O)CCN(Cc3c(C)noc3C)CC2)c1 | -8 | 1.26 |
| Cc1ncnc(NCCCn2nccc2C2CC2)c1C | -6 | 0.58 |
